PubChem BioAssay AID504339 (National Center for Advancing Translational Sciences (NCATS), 2011)
Out of some 390,000 compounds screened, about 17,000 (4.4%) were called active. The shares of active, inactive and inconclusive entries below differ from those in the screen. The call rests on the fitted dose curve; in most records, active means well fitted inhibition curve with a large enough effect; inconclusive means small, poorly fitted or top-dose-only effect; inactive means no such curve, though single readings can be large or run the other way. Potencies beside an inconclusive call are fits to weak or partial responses and may not hold up.

target: Lysine-specific demethylase 4A (Homo sapiens) (UniProt O75164); assay: qHTS Assay for Inhibitors of JMJD2A-Tudor Domain; conditions: AlphaScreen JMJD2A-Tudor / H3K4me3 peptide binding; activity change, negative = inhibition: at 114 µM (top of the series); further: nearly all actives have a fitted effect of over 50% in size
UniProt O75164, sequence (O75164 whole entry, looked up, the tested form may be a part): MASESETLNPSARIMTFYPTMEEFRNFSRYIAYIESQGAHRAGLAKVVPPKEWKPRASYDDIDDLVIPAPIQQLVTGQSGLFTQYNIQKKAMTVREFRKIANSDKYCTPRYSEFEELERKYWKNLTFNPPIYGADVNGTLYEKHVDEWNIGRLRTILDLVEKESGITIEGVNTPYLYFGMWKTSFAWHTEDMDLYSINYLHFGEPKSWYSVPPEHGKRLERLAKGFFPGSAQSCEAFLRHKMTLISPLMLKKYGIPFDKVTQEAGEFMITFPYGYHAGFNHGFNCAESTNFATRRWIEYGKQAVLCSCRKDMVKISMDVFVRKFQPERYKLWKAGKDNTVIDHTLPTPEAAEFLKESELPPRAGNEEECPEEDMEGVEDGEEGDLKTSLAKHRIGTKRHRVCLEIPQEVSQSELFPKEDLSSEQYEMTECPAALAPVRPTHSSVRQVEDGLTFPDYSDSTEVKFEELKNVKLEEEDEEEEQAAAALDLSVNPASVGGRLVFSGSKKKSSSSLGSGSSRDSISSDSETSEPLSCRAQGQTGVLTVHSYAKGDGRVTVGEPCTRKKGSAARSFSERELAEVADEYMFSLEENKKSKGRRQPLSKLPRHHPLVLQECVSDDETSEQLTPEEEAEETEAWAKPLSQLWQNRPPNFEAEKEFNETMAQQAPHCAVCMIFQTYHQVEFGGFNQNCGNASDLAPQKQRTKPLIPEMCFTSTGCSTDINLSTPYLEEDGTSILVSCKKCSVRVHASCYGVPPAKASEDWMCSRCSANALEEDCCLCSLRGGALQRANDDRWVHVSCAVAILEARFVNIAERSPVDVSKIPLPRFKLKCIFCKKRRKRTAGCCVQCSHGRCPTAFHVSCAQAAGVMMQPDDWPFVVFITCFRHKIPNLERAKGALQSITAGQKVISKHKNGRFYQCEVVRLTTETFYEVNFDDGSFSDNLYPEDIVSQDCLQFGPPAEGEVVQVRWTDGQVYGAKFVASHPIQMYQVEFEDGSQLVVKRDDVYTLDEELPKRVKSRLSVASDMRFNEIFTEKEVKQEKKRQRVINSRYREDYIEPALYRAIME
On the % scale 0 is the no-effect control and ±100 the full control effect; potency means the concentration at half of the fitted maximal effect; tags describe the fitted curve by direction and shape.

Structure (SMILES)	activity change, negative = inhibition	Potency
CCN1CCCC(Sc2nc3c([nH]2)c(=S)n(C)c(=O)n3C)C1 (centres undefined)	inactive: 2.11%	–
O=C(CCN1CCCCO1)N1CCCC(Nc2ccc(F)cc2)C1 (centres undefined)	inactive: -2.92%	–
COc1ccc(OCC(O)CN2CCC(CN3C(=O)c4cccc5cccc(c45)C3=O)CC2)cc1 (centres undefined)	–	inconclusive: 17.8 µM [inhibitor, full curve, poor fit]
COc1ccc(OCc2n[nH]c(=S)o2)cc1	–	inconclusive: 56.2 µM [inhibitor, partial curve]
CCOC(=O)/C(=N/Nc1ccc(OC)cc1)N1CCCc2ccccc21	–	inconclusive: 15.8 µM [inhibitor, single point]
O=C(Nc1nnc(-c2ccc3c(c2)CCCC3)o1)c1ccc(Cl)cc1Cl	–	inconclusive: 89.1 µM [inhibitor, partial curve]
COc1cccc2c1[C@@H]1CN(CCCCn3c(=O)[nH]c4c(sc5ncc(-c6ccccc6)nc54)c3=O)C[C@@H]1CO2	–	inconclusive: 35.5 µM [inhibitor, partial curve]
Cc1ccc(-c2csc(NC(=O)/C=C/c3ccco3)c2C(=O)O)cc1	–	inconclusive: 79.4 µM [inhibitor, partial curve]
CC(=O)c1ccc(NC(=O)C2=CC(c3cccs3)=NS(=O)(=O)N2C)cc1	–	inconclusive: 79.4 µM [inhibitor, partial curve]
Nc1ccc2ccccc2c1[N+](=O)[O-]	–	inconclusive: 70.8 µM [inhibitor, partial curve, poor fit]
COc1ccc(N2C(=S)NC3CS(=O)(=O)CC32)cc1 (centres undefined)	inactive: -17.1%	–
CC1(CCc2ccccc2)NC(=S)N(c2ccc(Cl)cc2)N1 (centres undefined)	–	inconclusive: 44.7 µM [inhibitor, single point]
Cc1cccc(/C=N/Nc2cc(N3CCOCC3)nc(N3CCOCC3)n2)c1	–	inconclusive: 70.8 µM [inhibitor, single point]
COc1ccc(C2(C)NC(=O)N(CC3CCCCC3)C2=O)cc1 (centres undefined)	inactive: -20.4%	–
Cc1ccc(C(=O)CSC2=NC(N)=C(C#N)C3(CCCCC3)C2C(N)=O)cc1 (centres undefined)	–	inconclusive: 50.1 µM [inhibitor, partial curve]
O=C1C=C(NCc2ccc(Cl)cc2)CC(c2ccco2)C1 (centres undefined)	–	inconclusive: 100 µM [inhibitor, partial curve, poor fit]
COc1ccc(-c2nc3nc(N)nn3cc2C)cc1F	inactive: -2.19%	–
O=C(COCc1cc(-c2cccs2)on1)NCc1ccccc1Cl	inactive: -3.96%	–
O=[N+]([O-])c1ccccc1C(O)Cc1ccccn1 (centres undefined)	inactive: -6.29%	–
CCOC(=O)c1nc(Nc2ccc(C)cc2)c2ccccc2n1	inactive: -3.83%	–
COc1cc(/C=N/NC(=O)c2ccccn2)cc2c1OCO2	–	inconclusive: 3.55 µM [inhibitor, full curve, poor fit]
Cc1ccc(S(=O)(=O)c2nc(NCCN(C)C)sc2Cl)cc1	–	inconclusive: 35.5 µM [inhibitor, partial curve]

Structure (SMILES)	activity change, negative = inhibition	Potency
CN(C)S(=O)(=O)n1cc(/C=C(\NC(=O)c2ccccc2F)C(=O)N2CCOCC2)c2ccccc21	–	inconclusive: 20 µM [inhibitor, partial curve, poor fit]
Cc1ccc(Cl)cc1NC(=O)C(NS(=O)(=O)c1cccc2nsnc12)c1ccccc1 (centres undefined)	–	inconclusive: 11.2 µM [inhibitor, full curve]
Cc1cc(C(=O)CN2C(=O)NC3(CCCCC3)C2=O)c(C)n1Cc1ccc2c(c1)OCO2	–	inconclusive: 50.1 µM [inhibitor, partial curve]
C/C(CCc1oc2ccc(Cl)cc2c1-c1ccc(C)o1)=N\O	–	active: 89.1 µM
CCN(CCc1ccccc1)c1ccc2c(c1)C1CC2CCN1C(=O)OCc1ccccc1 (centres undefined)	–	inconclusive: 20 µM [inhibitor, full curve]
CCOc1ccccc1N(C(=O)c1snc(C(N)=O)c1N)C(C(=O)NCc1ccccc1)c1ccc(O)cc1 (centres undefined)	–	inconclusive: 79.4 µM [inhibitor, partial curve]
CC(=O)c1ccc(N2CCN(S(=O)(=O)c3ccc4c(c3)NC(=O)CC(=O)N4)CC2)cc1	–	active: 15.8 µM
Cc1[nH]c2ccccc2c1C(C[N+](=O)[O-])c1cccs1 (centres undefined)	inconclusive: -38.8% [inhibitor]	–
C/C(=N\Nc1cccc2cccnc12)c1ccccn1	–	inconclusive: 12.6 µM [inhibitor, full curve, poor fit]
Cc1ccc(Cl)cc1OCC(=O)NCCOC(=O)Nc1sc(=S)n(C)c1C	inactive: -11.4%	–
CCCNC(=O)c1ccc(N2CCC3(CC2)CC(c2ccccc2)=NO3)c(NC(=O)c2ccco2)c1	inactive: -14.1%	–
Cc1cccc(NC(=O)CN2c3ccccc3S(=O)(=O)c3ccccc32)c1C	–	inconclusive: 89.1 µM [inhibitor, partial curve]
Cc1cc(OCCn2ccnc2)cc(C(C)C)c1	–	active: 0.794 µM
Cc1ccc2cccc(NC3OC(=O)c4ccccc43)c2n1 (centres undefined)	–	inconclusive: 39.8 µM [inhibitor, single point]
Cc1ccc([N+](=O)[O-])cc1-c1ccc(/C=C(\C#N)c2[nH]nc(N)c2C#N)o1	–	inconclusive: 14.1 µM [inhibitor, partial curve]
CC(=O)Nc1ccc(NC(=O)CCn2nnc3ccccc32)cc1	–	inconclusive: 20 µM [inhibitor, partial curve]
Cc1ccc(N=Nc2c(C)[nH]n(-c3ccccc3)c2=O)cc1	–	active: 6.31 µM
COc1ccc(-c2noc(CSc3nnc(-c4ccccc4)n3-c3ccc(F)cc3)n2)c(OC)c1	inactive: -32.3%	–
Cc1ccccc1C(=O)N1CCc2cc(-c3csc(NC(=O)CN4CCCC4)n3)ccc21	–	inconclusive: 50.1 µM [inhibitor, partial curve]
CC(=O)c1c(N2CCN(c3ccc(F)cc3)CC2)nc(=S)n(Cc2ccccc2)c1C	–	inconclusive: 56.2 µM [inhibitor, single point]
O=C(OC(c1ccccc1)c1nccc2ccccc12)c1cc([N+](=O)[O-])cc([N+](=O)[O-])c1 (centres undefined)	–	inconclusive: 3.16 µM [inhibitor, full curve]
CCOc1ccc(NC(=O)CCS(=O)(=O)c2ccc(Br)s2)cc1	–	inconclusive: 79.4 µM [inhibitor, partial curve]
